The campaign covered roughly 310,000 compounds. About 2,200 (0.71%) showed an effect of 50% or more. The effect is printed as a negative number. This is one part of the list.
Molecular target: human ether-à-go-go-related gene (hERG) potassium channel (human, UniProt Q12809)
Assay: primary screen, population patch clamp on CHO cells stably expressing hERG

human ether-à-go-go-related gene (hERG) potassium channel, sequence (Q12809 whole entry, looked up): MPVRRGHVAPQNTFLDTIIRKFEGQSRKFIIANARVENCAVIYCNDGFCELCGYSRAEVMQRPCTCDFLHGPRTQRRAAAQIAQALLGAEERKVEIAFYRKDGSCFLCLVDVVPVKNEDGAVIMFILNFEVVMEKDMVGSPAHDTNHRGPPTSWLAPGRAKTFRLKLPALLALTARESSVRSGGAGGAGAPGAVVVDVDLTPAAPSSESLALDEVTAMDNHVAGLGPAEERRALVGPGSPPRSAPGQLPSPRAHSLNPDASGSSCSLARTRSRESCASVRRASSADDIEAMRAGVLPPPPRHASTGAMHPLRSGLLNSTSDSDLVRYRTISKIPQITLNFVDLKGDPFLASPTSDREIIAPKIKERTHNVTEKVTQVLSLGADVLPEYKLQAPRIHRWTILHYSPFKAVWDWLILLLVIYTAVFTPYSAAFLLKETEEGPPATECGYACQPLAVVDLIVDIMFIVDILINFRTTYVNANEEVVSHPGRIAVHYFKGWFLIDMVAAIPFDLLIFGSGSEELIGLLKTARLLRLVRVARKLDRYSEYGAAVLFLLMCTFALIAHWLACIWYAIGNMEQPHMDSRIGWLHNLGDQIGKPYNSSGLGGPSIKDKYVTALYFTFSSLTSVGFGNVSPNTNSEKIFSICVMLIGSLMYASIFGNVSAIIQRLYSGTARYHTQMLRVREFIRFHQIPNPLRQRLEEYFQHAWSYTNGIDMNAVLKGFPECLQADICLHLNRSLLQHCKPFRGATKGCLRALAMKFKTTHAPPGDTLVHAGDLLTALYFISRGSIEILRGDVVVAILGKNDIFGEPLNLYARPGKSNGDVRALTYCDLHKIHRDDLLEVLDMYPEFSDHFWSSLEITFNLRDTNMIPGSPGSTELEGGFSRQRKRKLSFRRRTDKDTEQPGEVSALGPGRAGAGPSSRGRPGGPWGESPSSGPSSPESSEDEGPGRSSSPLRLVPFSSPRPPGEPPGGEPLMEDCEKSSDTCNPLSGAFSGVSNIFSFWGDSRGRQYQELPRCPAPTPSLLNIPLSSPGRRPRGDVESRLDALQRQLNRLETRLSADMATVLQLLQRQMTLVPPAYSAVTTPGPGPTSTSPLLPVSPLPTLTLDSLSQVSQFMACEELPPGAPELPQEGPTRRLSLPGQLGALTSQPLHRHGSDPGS

Row | SMILES | hERG current change (%, negative = inhibition) at 1uM
1 | Cc1ccccc1CS(=O)(=O)CCC(=O)O | 5.18%
2 | O=C(NCCCl)Nc1ccccc1OCCOc1ccccc1NC(=O)NCCCl | -0.97%
3 | COc1ccc(OCC(O)Cn2c(Nc3ccccc3)nc3c2c(=O)n(C)c(=O)n3C)cc1 (centres unmarked) | 6.41%
4 | COC(=O)c1[nH]c2ccc(C)cc2c1NC(=O)CCN1CCN(Cc2ccc3c(c2)OCO3)CC1 | -33%
5 | O=C(c1csc2ccccc12)N1CCCCCC1 | 14.3%
6 | COc1ccc(C2=NS(=O)(=O)N(C)C(C(=O)NC3CCCC3)=C2)cc1OC | -9.73%
7 | Cc1occc1C(=O)Nc1ccc([N+](=O)[O-])cc1Br | 13.6%
8 | Cc1ccc(N2CC(C(=O)N3CCN(c4ccccc4)CC3)CC2=O)cc1 (centres unmarked) | -5.57%
9 | Cc1cc(C)c(C#N)c(SCc2ccccc2)n1 | 14%
10 | O=C(O)CN1C(=O)CCS(=O)c2ccccc21 (centres unmarked) | 9.91%
11 | Cc1cc(C)nc(N(C#N)Cc2cccc(Cl)c2)n1 | 6.16%
12 | Cc1ccc2nc(NCCNC(=O)c3ccccc3)c(C#N)cc2c1 | 10.9%
13 | CC(C)(C)c1cc(NC(=O)COC(=O)c2ccc3c(=O)n4c(nc3c2)CCC4)n(-c2ccccc2)n1 | 5.48%
14 | CN1CCN(S(=O)(=O)c2cccc(C(=O)N(C)C(c3ccccc3)c3ccccc3)c2)CC1 | 9.81%
15 | CCOC(=O)CCc1c(C)nc(-n2[nH]c(C)c(CCO)c2=O)[nH]c1=O | 18.3%
16 | CCc1ccc(CN(C(=O)c2oc3ccccc3c2C)C2CCS(=O)(=O)C2)cc1 (centres unmarked) | 5.37%
17 | COc1ccc([C@H]2CC(=O)C=C(c3ccc(Cl)cc3C)C2)cc1 | 10.9%
18 | O=C1CS/C(=N\c2ccccn2)N1C1CCCCC1 | 9.92%
19 | CC1CC(C)(C)NC(=S)N1CC(=O)NCc1ccc(Cl)cc1 (centres unmarked) | 1.36%
20 | CCOc1cc(/C=N/NC(=O)CN2CCOCC2)ccc1OCc1ccccc1 | 2.06%
21 | CC(=O)c1ccc(S(=O)(=O)NC2CC(=O)N(c3ccc(C)c(C)c3)C2)cc1 (centres unmarked) | -2.68%
22 | O=C(COC(=O)c1ccc(O)cc1O)c1ccc(Cl)cc1 | 11.5%
23 | COc1cccc(CNC(=O)CCCC(=O)NC(C)CCc2ccccc2)c1 (centres unmarked) | 11.5%

Row | SMILES | hERG current change (%, negative = inhibition) at 1uM
24 | COc1cc2c(cc1OC)C(c1cc(Br)c(OC)c(OC)c1)CC(=O)N2 (centres unmarked) | 14.9%
25 | CC(Sc1nc(-c2ccccc2)cc(C(F)(F)F)n1)C(=O)Nc1sc2c(c1C#N)CCC2 (centres unmarked) | 11.6%
26 | CC1CC(C)CN(C(=O)CCNS(=O)(=O)c2ccc3c(c2)CCC(=O)N3)C1 (centres unmarked) | 13.6%
27 | Cc1[nH]c(=O)[nH]c(=O)c1S(=O)(=O)Nc1ccc(F)c([N+](=O)[O-])c1 | 10%
28 | CC(C)Cc1nnc(NC(=O)CCS(=O)(=O)c2ccc(Cl)cc2)s1 | 10.7%
29 | CCOc1cc(-c2nccc3cc(OC)c(OC)cc23)cc(OCC)c1OCC | 5.03%
30 | O=C(O)C(=O)O.O=C(c1ccco1)N1CCN(Cc2ccc(F)cc2)CC1 | 6.79%
31 | CN(C)CCCNC(=O)c1ccc(-c2nc(-c3ccc(Cl)cc3)cs2)cc1 | 7.04%
32 | CC(=O)NCCc1ccc(O)cc1 | 6.46%
33 | CCCNc1nc(OCC(F)(F)F)nc(OCC(F)(F)F)n1 | 4.89%
34 | CCCCCCCCCCCCN1[C@@H](CC(C)=O)c2cc(F)cc(F)c2S1(=O)=O | 11.6%
35 | CCOc1ccccc1NC(=O)C(CC(C)C)NC(=O)C1CCC(C)CC1 (centres unmarked) | -4.19%
36 | CCN(CC(=O)Nc1ccc(NC(C)=O)cc1)Cc1c(O)ccc2cc(Br)ccc12 | 13.5%
37 | CCCCNC(=O)c1cc2ccccc2s1 | 14%
38 | COCCCNC(=O)c1ccc(S(=O)(=O)c2ccc(C)cc2)c(NC(C)=O)c1 | 18.7%
39 | COc1cc(CNCc2ccccc2)c(Br)cc1OC1CCCC1.Cl | 16.9%
40 | CCN(CC)C(=O)C1CC(=O)OC12CCCCC2 (centres unmarked) | 8.44%
41 | CCCCc1c(O)nc(SCC(=O)N2CCOCC2)n(-c2ccc(OC)cc2)c1=O | 15.8%
42 | CCOc1ccc(CCNC(=O)c2nn(C)c3c2CS(=O)(=O)c2ccccc2-3)cc1OCC | 10.3%
43 | COc1cccc(CNC(=O)C2CCN(c3nnc(N4CCCC4=O)s3)CC2)c1 | 18.2%
44 | O=C(N/N=C/C=C\c1cccc([N+](=O)[O-])c1)c1ccccn1 | 5.57%
45 | O=C(CC(=O)N/N=C/c1ccc(O)cc1)N/N=C/c1ccc(O)cc1 | 10.1%
46 | COc1ccccc1C(=O)N(Cc1cccs1)C1CCS(=O)(=O)C1 (centres unmarked) | 4.49%

Row | SMILES | hERG current change (%, negative = inhibition) at 1uM
47 | COc1ccc(C(=O)Nc2ccc3nc(N4CCCCC4)cc(C)c3c2)cc1OC | -20.6%
48 | COc1cc(CCN2C(=O)N[C@@H](c3cccc(C(F)(F)F)c3)C(C(C)=O)=C2C)cc(OC)c1OC | -13%
49 | COCc1cc(N2CCCCC2)nc(-c2ccccc2)n1 | 7.78%
50 | O=C(CCS(=O)(=O)Cc1ccccc1)N1CCN(Cc2ccccc2)CC1 | -0.639%
51 | O=C1/C(=C\c2ccc3c(c2)OCO3)N2CCC1CC2 | 2.9%
52 | Cc1ccc(-c2csc(NC(=O)c3c(C)noc3C)n2)cc1C | 7.4%
53 | CCCS(=O)(=O)N1CCC(C(=O)NCCC(C)C)CC1 | 7.18%
54 | CC(C)C[C@@H](CSc1ccccc1)N1CCN(C)CCC1=O | 9.48%
55 | COCC(C)N1CCC(Oc2cccc(C(=O)NCCc3ccccc3)c2)CC1 (centres unmarked) | -34.1%
56 | CCCCNC(=S)NNC(=O)c1ccncc1 | 11.5%
57 | CCc1cc(C=C(Cl)Cl)oc(=O)c1C | -1.86%
58 | COc1ccccc1OC(=O)c1ccc(S(=O)(=O)N(C)C)cc1 | 12.4%
59 | NC(=S)N/N=C/c1coc2cc(Cl)ccc2c1=O | 10.8%
60 | CCN(CC(=O)Nc1ccccc1C(F)(F)F)C(=O)Cn1c(=O)cnc2ccccc21 | 10.1%
61 | O=C(NCCS(=O)(=O)NCc1ccc(F)cc1)c1ccc2c(c1)OCO2 | -4.13%
62 | CCC(=O)N1CCc2cc(Br)cc(S(=O)(=O)NCCN3CCCCC3C)c21 (centres unmarked) | 10.2%
63 | O=C(Cn1nc(-c2cccc(Cl)c2)ccc1=O)Nc1ccccc1Br | 5.64%
64 | Cc1ccc(C2CC(c3ccc(Cl)cc3)=NNC2=O)cc1 (centres unmarked) | -7.36%
65 | CCCCN(CC)S(=O)(=O)N1CCC(C(=O)NCCCN2CCOCC2)CC1 | 13.1%
66 | Cc1ccc(-c2ccc(SCC(=O)Nc3cc(C)on3)nn2)cc1 | 3.03%
67 | CCCc1cc(=O)oc2cc3oc(C)c(C)c3cc12 | -4.03%
68 | CSCc1ccc(C(=O)Nc2ccc(C(N)=O)cc2)cc1 | 8.09%
69 | O=S(=O)(NCC1CCCO1)c1ccc(-c2ccc(S(=O)(=O)NCC3CCCO3)cc2)cc1 (centres unmarked) | 13.9%

Row | SMILES | hERG current change (%, negative = inhibition) at 1uM
70 | Cc1cc(C(=O)NNC(=O)COc2ccccc2Cl)n[nH]1 | 8.75%
71 | O=c1[nH]c(=S)[nH]c(O)c1N=Nc1ccc(OC(F)F)cc1 | 6.59%
72 | COc1cnc(-c2ccccc2)c(-c2ccccc2)n1 | 9.41%
73 | Cc1ccccc1N1C(=O)CSC1=C(C#N)C#N | 8.65%
74 | O=C(c1ccco1)N1CCN(c2ncnc3scc(-c4ccc(F)cc4)c23)CC1 | 5.15%
75 | O=[N+]([O-])c1ccc(NC(=S)N2CCOCC2)cc1 | -6.23%
76 | CCCC(=O)Nc1nc2c(s1)COc1ccccc1-2 | 18.2%
77 | CCCS(=O)(=O)N1CCCC(C(=O)NCCCN2CCN(c3ccccc3F)CC2)C1 (centres unmarked) | 2.15%
78 | O=c1cccc2n1CC1CC2CN(Cc2c(Cl)cccc2Cl)C1 (centres unmarked) | -19%
79 | COC(=O)C1C(=O)OC(C)(C)C1C(C)C(=O)c1ccccc1 (centres unmarked) | 15.2%
80 | Cc1ccc(S(=O)(=O)N2CCN(c3ccc([N+](=O)[O-])c4cccnc34)CC2)cc1 | 7.53%
81 | CCOc1ccc(NCc2cc3cc(OC)ccc3[nH]c2=O)cc1 | 5.07%
82 | COc1ccc(OC(=O)COc2cccc(C)c2)cc1 | 12.9%
83 | Cc1oc2ccc(OCc3ccccc3F)cc2c1C(=O)O | 15.7%
84 | Cc1ccc(-c2nc(N3CCN(C)CC3)c3ccccc3n2)cc1.Cl | 3.62%
85 | CCN(CC)CCOC(=O)c1c(C)oc2ccc(O)cc12.Cl | -5.37%
86 | Cc1ccc(N(CC(N)=O)C2SC(=O)N(C)C2=O)cc1 (centres unmarked) | 14.4%
87 | Cc1cc(C)c2cc(C#N)c(N3CCCC3)nc2c1 | 2.26%
88 | COc1ccc(-c2c(C(=O)O)nc3ccccc3c2C(=O)O)cc1 | 5.08%
89 | Clc1cccc(Sc2ccc(-c3ccccn3)s2)c1 | 19.1%
90 | COc1ccccc1N1CC(C(=O)Nc2ccccc2N2CCCC2)CC1=O (centres unmarked) | 15.1%
91 | CC(=O)Nc1nc(S(=O)(=O)c2ccc(C)cc2)c(Cl)s1 | -0.686%
92 | COC(=O)C1=C(C(=O)OC)[C@@H]2N(C)c3ccc(OC)cc3[C@@]23C[C@@H](C(=O)OC)N(S(=O)(=O)c2ccc(OC)cc2)C3=N1 | 6.8%
